Test results reported in the supplement of paper PMC12217912.
Some of the results follow. The full chains were built here from the parent and the listed change. Values near 0.05 are background.

B1: TEV protease; numbered along this chain (parent)
chain: MGESLFKGPRDYNPISSSICHLTNESDGHTTSLYGIGFGPFIITNKHLFRRNNGTLVVQSLHGVFKVKDTTTLQQHLVDGRDMIIIRMPKDFPPFPQKLKFREPQREERICLVTTNFQTKSMSSMVSDTSCTFPSGDGIFWKHWIQTKDGQCGSPLVSTRDGFIVGIHSASNFTNTNNYFTSVPKNFMELLTNQEAQQWVSGWRLNADSVLWGGHKVFMVKPEEPFQPVKEATQL

Variants of: B1
Test: raw area under fraction-flipped curve 0-4 h after induction (AUC4h, not background-subtracted), DNA-recorder readout of cleavage of the substrate (dimensionless); higher = more cleavage of the substrate by the protease variant
Details: temperature: 34 °C; time window: 0-4 h after rhamnose induction
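Also: Bxb1 expression induced with 0.2% (w/v) L-rhamnose at OD600 near 0.5, cultures sampled hourly, flipped fraction per protease–substrate barcode pair counted by paired-end Illumina sequencing.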

Variant	area with substrate ENLYFQC	area with substrate ENLYFQD	area with substrate ENLYFQE	area with substrate ENLYFQG	area with substrate ENLYFQH	area with substrate ENLYFQI	area with substrate ENLYFQK	area with substrate ENLYFQL	area with substrate ENLYFQM	area with substrate ENLYFQN	area with substrate ENLYFQR	area with substrate ENLYFQS	area with substrate ENLYFQT	area with substrate ENLYFQY	area with substrate ENLYFQF	area with substrate ENLYFQQ	area with substrate ENLYFQV	area with substrate ENLYFQP	area with substrate ENLYFQW
D79R	0.0964	0.0806	0.0675	0.0843	0.0719	0.0499	0.0662	0.0589	0.0856	0.0511	0.0616	0.0826	0.0607	0.0681	–	–	–	–	–
S130T	0.144	–	–	–	–	–	0.0507	0.0594	0.102	–	0.0704	0.111	–	–	–	–	–	–	–
N53K	0.0944	0.0782	–	0.0868	–	0.0636	0.0626	0.0607	0.0837	0.0891	0.0604	0.092	–	0.0839	0.056	0.0921	0.0657	–	–
W144E	0.0951	–	–	–	0.0321	–	–	0.0687	0.0726	0.0688	0.0566	0.08	0.0789	0.091	–	–	0.058	0.0791	0.0565
T31Y	0.154	–	–	–	–	0.0823	–	0.0897	0.117	0.0447	–	0.11	0.0649	–	–	0.071	0.12	0.0589	0.107
G2V	0.171	–	–	0.14	–	0.0673	0.06	0.0786	0.118	0.0928	0.0559	0.141	–	–	0.115	0.0857	0.0481	–	0.0587
F101A	0.0727	–	–	0.0544	–	–	–	0.0508	0.0644	–	0.048	0.067	0.062	–	–	–	0.0608	–	0.0316
Y179P	0.045	0.0546	0.0608	0.0606	0.065	–	0.0582	–	0.0551	0.0454	–	0.0552	0.0564	0.0607	–	0.0512	–	–	0.0514
R10A	0.0907	–	–	0.103	–	0.0365	–	0.0466	–	–	0.0622	0.0957	0.0586	–	–	–	0.0761	–	0.0661
E107Q	0.111	–	–	0.1	0.101	0.0377	–	–	–	0.0685	0.0545	0.0989	0.0826	0.0982	–	–	0.0654	–	0.0693
K68S	0.115	–	0.0684	0.106	–	0.0635	–	0.0694	0.0952	0.0918	–	0.105	–	0.0566	0.0698	–	0.0759	–	–
V157T	–	0.061	–	0.117	–	–	0.0688	0.0477	–	–	0.0487	0.0912	–	–	–	–	–	–	0.0637
F65K	–	0.0603	–	0.0889	0.0646	0.052	0.0733	0.0559	0.0579	0.0764	0.0652	0.101	–	–	0.076	0.0449	0.0524	–	0.0537
P89K	–	0.0957	–	0.0683	–	–	0.0582	–	0.0532	0.0735	0.0523	0.0772	0.0616	–	–	0.064	0.054	0.0606	0.083
K185D	–	0.0686	–	–	–	–	–	–	0.0901	–	0.0639	0.108	–	–	0.0945	–	–	–	0.0581
F101G	–	0.0525	–	0.0521	0.0477	–	0.0646	–	–	–	–	0.0543	0.0567	0.0719	–	–	–	–	0.051
S121N	–	0.0639	–	–	–	0.0036	0.0616	0.0528	–	0.0918	–	0.109	–	0.079	–	–	–	–	0.0666

Variant	area with substrate ENLYFQC	area with substrate ENLYFQD	area with substrate ENLYFQE	area with substrate ENLYFQG	area with substrate ENLYFQH	area with substrate ENLYFQI	area with substrate ENLYFQK	area with substrate ENLYFQL	area with substrate ENLYFQM	area with substrate ENLYFQN	area with substrate ENLYFQR	area with substrate ENLYFQS	area with substrate ENLYFQT	area with substrate ENLYFQY	area with substrate ENLYFQF	area with substrate ENLYFQQ	area with substrate ENLYFQV	area with substrate ENLYFQP	area with substrate ENLYFQW
T129A	–	0.0705	–	0.0911	–	0.0293	0.0704	–	0.0887	0.0757	0.0309	0.092	0.066	–	–	0.072	–	0.072	0.0753
P228T	–	0.0389	–	–	–	0.0822	0.0692	–	0.0958	0.0889	–	0.101	0.0539	0.0753	–	–	–	–	–
T119K	–	0.0552	–	–	–	–	0.0578	0.0499	–	–	0.0659	0.106	0.0673	–	–	–	–	0.0801	0.0641
K7R	–	0.0593	–	0.108	0.073	0.0676	–	0.0752	0.103	–	0.0527	0.106	0.064	–	–	–	–	–	–
R51T	–	0.0723	–	0.138	–	–	0.0584	–	0.118	–	0.0577	0.134	0.0606	0.0756	–	–	–	–	0.0815
R106C	–	0.0711	–	0.0969	–	0.0428	0.0546	0.0579	0.0853	–	0.0623	0.0979	0.0666	0.0858	–	–	–	–	–
H62G	–	0.0658	–	0.0808	–	0.0474	0.0603	0.06	0.0966	0.0773	0.0585	0.101	–	–	–	–	–	0.121	0.0709
S171W	–	0.0623	–	–	–	–	–	–	0.0683	–	0.0611	0.0576	0.0548	0.0448	–	0.0631	–	0.0508	0.0528
L205C	–	0.0662	0.064	0.0707	0.0832	–	–	0.0536	–	–	0.0788	0.0894	–	0.0698	–	–	0.052	–	0.061
L235D	–	0.0807	–	–	0.101	0.0642	–	–	–	–	0.0733	0.123	–	–	–	–	–	–	–
S171N	–	0.0704	–	–	–	0.063	0.0702	0.0454	0.0601	–	0.0507	0.0687	–	0.0514	–	0.0738	0.0548	–	0.0533
F180T	–	0.0673	–	0.0414	–	0.0537	0.0594	0.0383	0.0408	0.0572	0.072	0.0557	–	–	–	–	0.0589	–	–
G138I	–	0.0712	–	–	–	–	–	–	0.114	–	–	0.0875	0.0512	–	–	–	–	–	–
E3K	–	0.0713	–	–	–	0.0638	0.0682	–	0.102	–	0.0609	0.134	0.0629	0.0712	0.081	–	–	0.0531	0.0792
I85Q	–	0.0501	–	–	–	–	0.052	0.0534	–	0.0482	0.0451	0.056	0.0436	–	–	–	–	0.0364	–
L211G	–	0.0709	–	0.0822	0.0846	–	–	0.0422	0.0614	0.0646	0.0585	0.0945	0.0753	0.0627	–	–	0.0495	0.0673	–
R50S	–	0.0398	0.0759	–	0.0899	–	–	0.0599	–	–	0.061	0.116	–	–	0.0861	0.0669	–	0.05	0.0657
